Assay results from PubChem BioAssay AID485313 (National Center for Advancing Translational Sciences (NCATS), 2010).
The campaign covered roughly 320,000 compounds. About 7,600 (2.4%) were called active. This list was built around the results that the source calls inconclusive (neither active nor inactive); the mix of calls is not that of the screen. The call rests on the fitted dose curve; in most records, active means well fitted activation curve with a large enough effect; inconclusive means small, poorly fitted or top-dose-only effect; inactive means no such curve, though single readings can be large or run the other way. Where the call is inconclusive, the potency comes from a doubtful curve fit.

assay: qHTS Assay for NPC1 Promoter Activators; conditions: Huh7 NPC1 promoter luciferase reporter, 24 h; series mostly up to 9.22 µM; activation: at the top concentration; further: nearly all actives have a fitted effect of over 60% in size;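 on activation: reporter is driven by a mutant NPC1 promoter; % of control where 0% means no effect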
In short: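 Stable NPC1-promoter luciferase Huh7 line; cpd (DMSO) 24 h, 37 °C, 5% CO2; Amplite luciferase reagent 10 min RT; luminescence readout. qHTS format.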
Potency means the concentration at half of the fitted maximal effect; tags describe the fitted curve by direction and shape.

Potency, inconclusive:
CCCCOc1ccc(-n2nc(C)cc2C)nn1 3.55 µM [activator, single point]
CC1CCN(c2ccc(C(=O)NCCc3ccccc3)cn2)CC1 2.82 µM [activator, partial curve]
O=C(NCCCc1ccccc1)c1cccs1 2.51 µM [activator, partial curve]
COc1cccc(N/N=C/c2cccc(Br)c2O)c1 5.62 µM [activator, single point]
COc1cc(/C=N/N=C(N)N)ccc1OCc1ccc(Cl)cc1 0.708 µM [activator, full curve]
Cc1nc2c(ccc3c2ccc2nc(C)sc23)s1 2.82 µM [activator, partial curve]
O=C(O)Cc1sc(Nc2ccc(Cl)cc2)nc1-c1cccs1 3.55 µM [activator, partial curve]
COc1ccc(-c2c(C)c3ccc(O)cc3oc2=O)cc1 5.62 µM [activator, single point]
Nc1cc(N)nc(SCc2ccccc2)n1 3.16 µM [activator, partial curve]
COc1ccccc1/C=C/C(=O)NCCc1ccccn1 5.62 µM [activator, single point]
COc1cccc(-c2nnc(SCc3cccnc3)o2)c1 5.01 µM [activator, single point]
CCOc1ccc2nc(NC(=O)Nc3ccccc3)sc2c1 5.62 µM [activator, single point]
Nc1nnc(-c2cc3ccccc3oc2=O)s1 2.82 µM [activator, partial curve]
Cc1ccc2[nH]c3c(c2c1)CCc1cn[nH]c1-3 2.82 µM [activator, partial curve]
O=C(N/N=C/C=C/c1ccccc1)c1cccs1 2.82 µM [activator, partial curve]
COC(=O)Cc1csc(Nc2ccccc2Cl)n1 3.55 µM [activator, partial curve]
CC(C)/C=N/Nc1nc(-c2ccc(Br)cc2)cs1 3.55 µM [activator, partial curve]
O=C(O)c1cc(N/N=C/C(Cl)=C/c2ccccc2)ccc1Cl 0.0794 µM [activator, full curve, poor fit]
CCOc1ccc(OCCSc2nc(C)cc(=O)[nH]2)cc1 2.82 µM [activator, partial curve]
CC(=O)c1cc(C#N)c(SCc2ccccn2)nc1C 3.98 µM [activator, single point]
C/C(=N\NC(=O)COc1ccccc1[N+](=O)[O-])c1cccs1 3.16 µM [activator, partial curve]
O=C(CSc1nnc(-c2ccc(C(F)(F)F)cn2)o1)Nc1ccccc1Cl 2.24 µM [activator, partial curve]
Cc1cc(=O)oc2c(C(=O)/C=C\c3cccs3)c(O)ccc12 2.51 µM [activator, partial curve]
Cc1cc(C)c2c(N)c(C(=O)N/N=C/c3cccnc3)sc2n1 3.16 µM [activator, partial curve]
CC(C)C(=O)Nc1cccc(-c2cnc3ccccc3n2)c1 3.16 µM [activator, partial curve]
Cc1ccc(NC(=O)C2C3/C=C\CCCCC32)cc1 (configuration not stated) 2.51 µM [activator, partial curve]
COc1ccccc1NC(=O)c1cc(Cl)nc2ccccc12 5.62 µM [activator, single point]
O=c1c2cccc(Cl)c2nc2n1Cc1ccccc1-2 3.16 µM [activator, partial curve]

Potency, active:
CC(C)(C)c1ccc(C(=O)NCCC(=O)N2CCCC2)cc1 2.24 µM
O=C(COc1ccc2oc3c(c2c1)CCCC3)Nc1ccccn1 0.631 µM
O=C1c2ccccc2CN1CCSC(=S)N1CCOCC1 3.55 µM
C#CCN1C(=O)S/C(=C/c2cc(C)n(CC)c2C)C1=O 2.82 µM
O=C(O)c1ccc(N=Nc2c(O)[nH]c3cc(Cl)ccc23)cc1 0.316 µM
O=C(/C=C/c1ccc(OC2CSC2)cc1)c1ccccc1 3.55 µM
CCSc1nnc(Nc2ccc(C)cc2)s1 3.55 µM
COc1ccc2cc(-c3cc(C(=O)O)c4ccccc4n3)ccc2c1 0.112 µM
O=C(Nc1ccc(F)c(Cl)c1)c1ccc2c(c1)OCO2 1.78 µM

activation, inactive:
COc1cc(-c2nnc(SCc3ccccc3Cl)o2)cc(OC)c1OC -6.59%
COc1ccc(C(=O)NCC(=O)OCc2ccc(Br)cc2)cc1 -0.696%
Cc1nc(N2CCN(C(=O)c3ccco3)CC2)c(C#N)c2c1CCCC2 -0.209%
COc1ccc2c(c1)[C@@H]1[C@H](CO2)[C@H](c2ccccc2)[C@]2(C)C(=O)NCC(=O)N12 0.277%
O=S1(=O)CCOCCCN1Cc1ccc(Cl)cc1 2.24%
CC1CCc2c(sc(NC(=O)CSc3ncn[nH]3)c2C#N)C1 (configuration not stated) -42.7%
Cn1c(=O)c2c(nc(Br)n2Cc2ccccc2Cl)n(C)c1=O -3.14%
N/C(=N\OS(=O)(=O)c1ccccc1)c1ccccn1 -0.102%
CC(C(=O)Nc1cc(Cl)cc(Cl)c1)N1CCCC1 (configuration not stated) -3.55%
Cc1c(C(=O)OCC(=O)c2c(N)n(CC(C)C)c(=O)n(C)c2=O)oc2ccccc12 -9.75%
Cc1nc(N2CCN(C(=O)c3ccco3)CC2)c2c3c(sc2n1)CCCC3 -0.847%
O=C(CSc1nc2cc(Cl)ccc2o1)N1CCOCC1 3.47%
COc1ccc(OCc2nc(-c3ccc(F)c(F)c3)cs2)cc1 1.5%
O=C(Nc1cccc([N+](=O)[O-])c1)c1ccc(-c2ccccc2)cc1 12.2%
CN(C)c1ccc(N2C(=NC(=O)C3CCCO3)SC3CS(=O)(=O)CC32)cc1 (configuration not stated) 5.21%
